Values joined by “and” are separate entries in the source; they are usually repeats but may differ in a detail not shown here. Equal entries are not always repeated. The whole screen tested about 290,000 compounds, of which about 2,100 (0.72%) were called active. Inconclusive results (about 4%) are left out. Calls come from the whole dose curve; as a rule, active = well fitted inhibition curve with a large enough effect; inconclusive = small, poorly fitted or top-dose-only effect, or effect the other way; inactive = flat fitted curve, though single readings scatter. Only a part is listed here, and it is no random draw. Some compounds were tested as several samples or in several runs, with calls that do not always agree.
% is set by controls: 0 for no effect and ±100 for the full control effect; potency is the fitted concentration of half-maximal effect.

This test has as its target Fructose-bisphosphate aldolase (Giardia intestinalis (strain ATCC 50803 / WB clone C6)) (UniProt A8B2U2). Kind of test: qHTS Assay for Inhibitors of Fructose-1,6-bisphosphate Aldolase from Giardia Lamblia. Note: nearly all actives have a fitted effect of over 55% in size. To be noted: purified Giardia FBPA; series mostly up to 59.6 µM; activity, negative = inhibition: at the top concentration. An outline of the steps: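 Giardia FBPA (40 nM reagent) was preincubated 10 min at RT with compound (up to 57.5 uM final), then substrate plus GAPDH/TPI/NAD/arsenate coupling system with diaphorase/resazurin was added; resorufin fluorescence (525/598 nm) was read after 20 min.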
Sequence of UniProt A8B2U2 (A8B2U2 whole entry, looked up): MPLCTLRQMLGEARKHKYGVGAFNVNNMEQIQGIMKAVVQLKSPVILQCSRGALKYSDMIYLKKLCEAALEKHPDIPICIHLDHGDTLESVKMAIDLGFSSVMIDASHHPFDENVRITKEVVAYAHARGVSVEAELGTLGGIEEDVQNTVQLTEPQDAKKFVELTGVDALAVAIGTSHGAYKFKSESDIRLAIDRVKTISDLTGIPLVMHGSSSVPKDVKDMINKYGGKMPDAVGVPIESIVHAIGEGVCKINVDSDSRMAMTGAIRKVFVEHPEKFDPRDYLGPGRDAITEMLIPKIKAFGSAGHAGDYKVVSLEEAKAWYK
As to `CCOC(=O)N1CC=C2C(C#N)=C(N)C(C#N)(C#N)[C@H](c3cccs3)C2C1` (stereo not given in full), the “activity, negative = inhibition” value is inactive: -9.82%.

On to `N[C@@H](Cc1ccc(O)c(O)c1)C(=O)O`, for which the “activity, negative = inhibition” value is inactive: -28.5% [at 21.7 µM].

On to `O=C1c2c(O)ccc(O)c2C(=O)c2c(NCCNCCO)ccc(NCCNCCO)c21`, for which the Potency result was “inactive”.

On to `CC(=Nc1ccccc1N)c1c(C)cc(=O)n(O)c1O`, for which the Potency is active: 8.89 µM and active: 15.8 µM.

Take `C[C@@](Cc1ccc(O)c(O)c1)(NN)C(=O)O`: the “activity, negative = inhibition” value was inactive: -3.02%.

Regarding `c1ccc(-c2ccc(C(c3ccccc3)n3ccnc3)cc2)cc1` (stereo not given), the Potency entry was “inactive”.

For `c1cncc(C2Nc3cccc4cccc(c34)N2)c1`, the “activity, negative = inhibition” value is inactive: -22.2%.

As for `COC(=O)CCCC1=CC2=C(c3ccccc3)C(=O)C(C)(OC(=O)C3CCCC3)C(=O)C2=CN1Cc1ccco1` (stereo not given), the activity, negative = inhibition is inactive: -17.4% [at 12.9 µM].

For `CCCCc1cc2c(cn1)=C(OC(=O)c1cnc3ccccc3n1)C(C)(OC(=O)CC)C(=O)C=2` (stereo not given), the activity, negative = inhibition is inactive: -11.8% [at 12.9 µM].

With `CC(=O)O[C@]1(C(C)=O)CC[C@H]2[C@@H]3C=C(Cl)C4=CC(=O)CC[C@]4(C)[C@H]3CC[C@@]21C`, the “activity, negative = inhibition” value was inactive: -29%.

For `Nc1ccn([C@H]2C[C@H](O)[C@@H](CO)O2)c(=O)n1`, the “activity, negative = inhibition” value is inactive: 5.26%.

Take `N#C/C(=C/c1ccncc1)c1nc2ccccc2c(=O)[nH]1`: the “activity, negative = inhibition” value is inactive: -24.7%.

Regarding `CC(C)CN1C=C2C(=O)C(C)(OC(=O)C3CCCC3)C(=O)C=C2C=C1c1ccsc1` (stereo not given), the activity, negative = inhibition was inactive: 7.49% [at 12.9 µM].

As for `CCC[C@H]1C[C@H](C(=O)N[C@@H]([C@H]2O[C@@H](SC)[C@@H](O)[C@@H](O)[C@@H]2O)[C@H](C)Cl)N(C)C1`, the “activity, negative = inhibition” value was inactive: 0.681% [at 21.7 µM].

Regarding `CCC(C)C(=O)OC1CC(C)C=C2C=CC(C)C(CCC3CC(O)CC(=O)O3)C21` (stereo not given), the “activity, negative = inhibition” value was inactive: 0.848%.

On to `CN[C@@H](C)[C@@H](O)c1ccccc1`, for which the “activity, negative = inhibition” value was inactive: -20.8%.

In the case of `O=C(O)Cc1csc(-c2cccc(Oc3ccccc3)c2)n1`, the “activity, negative = inhibition” value was inactive: 26.2%.

Turning to `COC1=C[C@@H]2[C@@H]3Cc4ccc(OC)c(O)c4[C@]2(CCN3C)CC1=O`, the “activity, negative = inhibition” value is inactive: -25%.

`COC(=O)[C@H]1[C@@H]2C[C@@H]3c4[nH]c5ccccc5c4CCN3C[C@H]2CC[C@H]1O`: the “activity, negative = inhibition” value is inactive: -22.7%.

Regarding `CO[C@]1(NC(=O)Cc2cccs2)C(=O)N2C(C(=O)O)=C(COC(N)=O)CS[C@H]21`, the “activity, negative = inhibition” value is inactive: -14.4% [at 21.7 µM].

As for `COc1cc(Br)c(CN2CCCN(C)CC2)cc1OC`, the Potency is active: 12.6 µM.

As to `C[C@H](N)Cc1c[nH]c2ccc(O)cc12`, the “activity, negative = inhibition” value was inactive: -27.1%.

Consider `C[C@@H]1CCc2cc(F)cc3c(=O)c(C(=O)O)cn1c23`, for which the “activity, negative = inhibition” value was inactive: -13.4% [at 21.7 µM].

Take `COc1ccc2c(c1)c(CC(=O)OCC(=O)O)c(C)n2C(=O)c1ccc(Cl)cc1`: the Potency result is “inactive”.

`COC/C=C/C1=CC2=CC(=O)C(C)(OC(=O)CCC(=O)OC)C(=O)C2=CO1` (stereo not given): the “activity, negative = inhibition” value was inactive: -13.2%.

As for `CC(C)c1ccc(/C=N/N2CCCCC2)cc1`, the Potency is active: 14.1 µM.

On to `O=C(O)c1cccc(-n2cccc2/C=C\[N+](=O)[O-])c1`, for which the “activity, negative = inhibition” value was inactive: -21.9%.

On to `Cn1cc(C2=C(c3cn(CCCSC(=N)N)c4ccccc34)C(=O)NC2=O)c2ccccc21`, for which the “activity, negative = inhibition” value is inactive: -28.6%.

`COC(=O)CCC(=O)OC1(C)C(=O)C=C2C=C(C3CC3)N(CCCOC(C)C)C=C2C1=O` (stereo not given): the activity, negative = inhibition was inactive: -27% [at 12.9 µM].

For the compound `CNC(C)[C@@H](O)c1ccccc1` (stereo not given in full), the “activity, negative = inhibition” value is inactive: 1.99%.

`C[C@@H](C(=O)O)c1ccc(-c2ccccc2)c(F)c1`: the “activity, negative = inhibition” value is inactive: 15.2% [at 21.7 µM].

On to `Fc1ccc(-[n+]2nc(Nc3ccccc3)sc2-c2c3ccccc3cc3ccccc23)cc1`, for which the Potency was active: 22.4 µM.

For `O=c1cc(O)c2sc(Nc3ccc(F)c(Cl)c3)nc2[nH]1`, the Potency was active: 1.99 µM.

Regarding `N#Cc1c(N2CCCCC2)nc(N)c2c(N)nc(SCC(=O)O)cc12`, the Potency was active: 12.6 µM.

Take `COc1cc2nc(N3CCN(C(=O)[C@H]4CCCO4)CC3)nc(N)c2cc1OC`: the “activity, negative = inhibition” value is inactive: -2.34%.

Turning to `CNc1ccc2oc(C[C@@H]3OC4(CC[C@@H]3C)O[C@H](C(C)C(=O)c3ccc[nH]3)[C@H](C)C[C@H]4C)nc2c1C(=O)O` (stereo not given in full), the “activity, negative = inhibition” value is inactive: -7.92%.

Regarding `CC1(OC(=O)C2CCCC2)C(=O)C=C2C=C(c3ccsc3)N(Cc3ccco3)C=C2C1=O` (stereo not given), the activity, negative = inhibition is inactive: -24.6% [at 12.9 µM].

`NCCS`: the Potency entry is “inactive”.

Take `C/C(=C/C=C/[C@@H](C)C(=O)O)[C@H]1CN[C@H](C(=O)O)[C@H]1CC(=O)O`: the “activity, negative = inhibition” value is inactive: -29.8%.

For the compound `CC1(C)[C@@H](O)CC[C@]2(C)[C@H]3C(=O)C=C4[C@@H]5C[C@@](C)(C(=O)O)CC[C@]5(C)CC[C@@]4(C)[C@]3(C)CC[C@@H]12`, the “activity, negative = inhibition” value is inactive: -0.579%.

Regarding `COc1ccc2c3c1O[C@H]1C[C@@H](O)C=C[C@@]31CCN(C)C2`, the Potency result was “inactive”.

Consider `O=C1S/C(=C/c2ccc(N3CCOCC3)o2)C(=O)N1Cc1c(F)cccc1Cl`, for which the “activity, negative = inhibition” value is inactive: -20.4%.

Consider `NC(=O)N1c2ccccc2CC(=O)c2ccccc21`, for which the “activity, negative = inhibition” value is inactive: -7.37%.

In the case of `C=CCN1C=C2C(=O)C(C)(OC(=O)C3CCCC3)C(=O)C(c3ccccc3)=C2C=C1CCCC(=O)OC` (stereo not given), the activity, negative = inhibition is inactive: -5.01% [at 12.9 µM].

`Fc1ccccc1CN1CCN(c2ncccn2)CC1`: the Potency was active: 25.1 µM.

For the compound `CC1(OC(=O)CCc2ccccc2)C(=O)C=C2C=C(c3ccc(C#N)cc3)N(CCc3ccccn3)C=C2C1=O` (stereo not given), the activity, negative = inhibition is inactive: 11% [at 12.9 µM].

With `C[C@H](CCC(=O)O)[C@H]1CC[C@@H]2[C@H]3CC[C@H]4C[C@@H](O)CC[C@@]4(C)[C@H]3CC[C@]21C`, the “activity, negative = inhibition” value was inactive: 15.6% [at 21.7 µM].

Take `COc1ccc(CN2CCN(Cc3ccccc3F)CC2)cc1`: the Potency is active: 15.8 µM.

On to `NC(=O)C1CCN(CC(=O)Nc2nccs2)CC1`, for which the Potency was active: 3.55 µM.

In the case of `O=S(=O)(NCc1ccco1)c1ccccc1Br`, the “activity, negative = inhibition” value was inactive: -12.9%.

Take `COC(=O)CCC(=O)OC1(C)C(=O)C=C2C=C(C3CC3)N(CCN3CCOCC3)C=C2C1=O` (stereo not given): the activity, negative = inhibition was inactive: -28.6% [at 12.9 µM].

On to `Cc1cc(C)c(O)c(N)c1`, for which the Potency was active: 19.9 µM.

Turning to `CCCCC1=CC2=C(c3ccco3)C(=O)C(C)(OC(=O)c3ccc(OC)cc3)C(=O)C2=CN1C1CC1` (stereo not given), the “activity, negative = inhibition” value is inactive: -29.3%.

Consider `N#C/C(=C/c1ccco1)C(N)=S`, for which the Potency is active: 15.8 µM.

Turning to `CO/N=C(\C(=O)N[C@@H]1C(=O)N2C(C(=O)O)=C(COC(C)=O)CS[C@H]12)c1csc(N)n1` (stereo in doubt), the Potency result was “inactive”.

For the origin of these results see PubChem BioAssay AID2451 (National Center for Advancing Translational Sciences (NCATS), 2010).
